From PubChem BioAssay AID894 (National Center for Advancing Translational Sciences (NCATS), 2007)
The campaign covered roughly 150,000 compounds. About 6,500 (4.3%) were called active. Inconclusive means that the source gave no clear call. Such entries were picked first, then a sample of the others. Calls come from the whole dose curve; as a rule, active = well fitted inhibition curve with a large enough effect (not every such curve was filed as active); inconclusive = small, poorly fitted or top-dose-only effect, or another doubt; inactive = no such curve, though single readings can be large or run the other way. No potency is given beside an inconclusive call; the fits are too rough.

These compounds were tested against 15-hydroxyprostaglandin dehydrogenase [NAD(+)] (Homo sapiens) (UniProt P15428) (assay: qHTS Assay for Inhibitors of HPGD (15-Hydroxyprostaglandin Dehydrogenase)). Conditions: purified HPGD, NADH fluorescence kinetic, PGE2 substrate; activity change, negative = inhibition: active compounds read low.
UniProt P15428, sequence (P15428 whole entry, looked up): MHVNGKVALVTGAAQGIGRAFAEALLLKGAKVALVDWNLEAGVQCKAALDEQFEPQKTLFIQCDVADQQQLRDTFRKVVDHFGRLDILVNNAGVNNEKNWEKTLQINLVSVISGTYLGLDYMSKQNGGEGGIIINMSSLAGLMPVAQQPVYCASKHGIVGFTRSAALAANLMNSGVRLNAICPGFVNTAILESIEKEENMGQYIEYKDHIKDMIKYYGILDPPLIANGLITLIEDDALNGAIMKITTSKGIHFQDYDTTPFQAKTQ
Outline: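 NADH formation kinetics: reaction with 30 uM PGE2 and 1 mM NAD+ (final), 20 nM enzyme, Tris-HCl pH 8 with Tween 20, after 15 min compound preincubation at room temperature. Fluorescence change, last versus first of five reads.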
% is set by controls: 0 for no effect and ±100 for the full control effect; potency is the fitted concentration of half-maximal effect; tags give direction and shape of the fitted curve.

| Structure (SMILES) | Potency | activity change, negative = inhibition |
| --- | --- | --- |
| COC(=O)c1ccc(N2CCC(C)CC2)c(N)c1 | inconclusive [inhibitor, partial curve] | – |
| COc1ccc(S(=O)(=O)Nc2ccccc2C(=O)Nc2nc(-c3ccc(F)cc3)cs2)cc1OC | inconclusive [inhibitor, partial curve] | – |
| O=C(Nc1ccc(Oc2ccccc2)cc1)C1CCCO1 (stereo not given) | active: 11.2 µM | – |
| COC(=O)C1=C(C)OC(N)=C(C#N)C1c1ccco1 (stereo not given) | – | inactive: -9.74% |
| CCOc1cc(-c2nnc(-c3ccco3)o2)cc(OCC)c1OCC | inconclusive [inhibitor, partial curve] | – |
| CCSc1nnc(NC(=O)CSc2nc3c(c(=O)n2CC)SC(C)C3)s1 (stereo not given) | – | inactive: -8.54% |
| Cc1cc2nc(-c3ccc(SCC(=O)N4CCN(C(=O)c5ccco5)CC4)nc3)[nH]c2cc1C | inconclusive [inhibitor, partial curve] | – |
| COc1ccc(C2CC(c3cccs3)=NN2c2ccc(C=O)cc2)cc1 (stereo not given) | inconclusive [inhibitor, full curve] | – |
| Fc1cc2nc(-c3ccncc3)[nH]c2cc1F | inconclusive [inhibitor, partial curve] | – |
| CC(NC(=O)/C(=C\c1cccc([N+](=O)[O-])c1)NC(=O)c1ccco1)C(=O)O (stereo not given) | active: 28.2 µM | – |
| COC(=O)c1ccc(COc2ccc3c4c(c(=O)oc3c2)CCC4)o1 | inconclusive [inhibitor, partial curve] | – |
| C/C=C/Cn1c(SCc2ccc(C)cc2)nc2c1c(=O)[nH]c(=O)n2C | active: 14.1 µM | – |
| CC1(CC(=O)O)O[C@H]2CCCCC[C@H]2O1 (stereo not given in full) (tested in a mixture with another compound) | – | inactive: -7.59% |
| Cc1cccc(-c2nc(C#N)c(N3CCCCCC3)o2)c1 | inconclusive [inhibitor, partial curve] | – |
| FC(F)(F)c1nnc2ccc(N3CCN(c4ccccc4)CC3)nn12 | inconclusive [inhibitor, partial curve] | – |
| O=C(c1cccc(F)c1)N1CCC2(CC1)CN(c1ccccn1)C2 | inconclusive [inhibitor, partial curve] | – |
| Cc1c(Br)cc(C(=O)N2CCCCCC2)c(C)c1C | active: 14.1 µM | – |
| O=C1CN(C(=O)COC(=O)CNC(=O)c2ccccc2)c2ccccc2N1 | inconclusive [inhibitor, single point] | – |
| COc1ccc(/C=N/N=C2/NC(=O)C(CC(=O)O)S2)cc1OCc1ccccc1Cl (stereo not given) | inconclusive [inhibitor, single point] | – |
| Cc1ccc(-n2c(=O)c3sccc3n(Cc3cc(=O)n4ccccc4n3)c2=O)cc1F | inconclusive [inhibitor, partial curve] | – |
| c1csc(-c2nnc(-c3ccc(N4CCOCC4)cc3)o2)c1 | inconclusive [inhibitor, partial curve] | – |
| CN(C)c1ccc(C(=O)c2ccc(N(C)C)c3ccccc23)cc1 | – | inactive: -22.3% |
| Cc1cc(Oc2ccccc2)nc2ccc(O)cc12 | inconclusive [inhibitor, partial curve] | – |

| Structure (SMILES) | Potency | activity change, negative = inhibition |
| --- | --- | --- |
| CCCCc1cc(=O)oc2c(CN(C)C)c(O)ccc12 | inconclusive [inhibitor, partial curve] | – |
| CCCCc1ccc(NC(=S)Nc2ccc(Nc3ccc(OC)cc3)cc2)cc1 | inconclusive [inhibitor, single point] | – |
| N#C/C(=C/c1ccc(-c2ccc(S(N)(=O)=O)cc2)o1)c1nc2ccccc2s1 | inconclusive [inhibitor, partial curve] | – |
| CCOc1ccc(NC(=O)C/C(N)=N/O)cc1 | – | inactive: -9.56% |
| Cc1ccc(C(=O)O)cc1S(=O)(=O)N1CCCC1 | – | inactive: -0.729% |
| CCN(CC)c1ccc(C=Nc2ccc(C#N)cc2)c(O)c1 | active: 28.2 µM | – |
| N#Cc1c(-c2ccco2)c2c([nH]c1=S)CCCC2 | active: 15.8 µM | – |
| N#Cc1ccc(-c2ccc(OCC(=O)NCC(=O)Nc3ccc(F)c(F)c3F)cc2)cc1 | inconclusive [inhibitor, partial curve] | – |
| Cc1ccc(-c2cc(C(=O)NCc3ccco3)c3ccccc3n2)o1 | inconclusive [inhibitor, partial curve] | – |
| Cc1cccc(OCC(=O)NNC(=O)C2CCCCC2C(=O)O)c1 (stereo not given) | – | inactive: -14.6% |
| CCN1CCN(Cc2c(O)ccc3c(=O)c(-c4ccccc4OC)coc23)CC1 | inconclusive [inhibitor, partial curve] | – |
| CCOC(=O)Cc1csc(SCC(=O)NC2CCCC(C)C2C)n1 (stereo not given) | active: 25.1 µM | – |
| O=C(COC(=O)c1ccc(NS(=O)(=O)c2ccc3c(c2)OCCO3)cc1)NCC1CCCO1 (stereo not given) | – | inactive: -22.5% |
| COC(=O)c1ccc(NC(=O)N2CCC(O)(c3cccnc3)CC2)cc1 | inconclusive [inhibitor, partial curve, poor fit] | – |
| Oc1ccccc1/C=N/Nc1ccnc(SCc2ccccc2)n1 | active: 28.2 µM | – |
| Cc1cccc(-c2nc3cc(NC(=O)C4CCCO4)ccc3o2)c1 (stereo not given) | inconclusive [inhibitor, partial curve] | – |
| N#C/C(=C\c1cn(CCOc2ccccc2)c2ccccc12)C(=O)NCC1CCCO1 (stereo not given) | inconclusive [inhibitor, partial curve, poor fit] | – |
| COc1ccc(-c2nc(C#N)c(NCc3ccccc3Cl)o2)cc1 | inconclusive [inhibitor, partial curve] | – |
| Cc1ccc(-c2nc(CSc3nc4ccccc4c(=O)n3C)cs2)cc1 | – | inactive: -26.3% |
| COc1ccc(C(=O)Nc2nnc(-c3ccco3)s2)cc1 | inconclusive [inhibitor, partial curve] | – |
| Cc1ccc(-n2c(Cn3nc(C(F)(F)F)cc3C)n[nH]c2=S)cc1 | inconclusive [inhibitor, single point] | – |
| O=C(NCc1ccco1)c1cc2sccc2n1Cc1ccc(F)cc1 | active: 17.8 µM | – |
